This note sets out measurements from publication PMC10164576, “Interaction with the carboxy-terminal tip of SSB is critical for RecG function in E. coli” (Nucleic Acids Research, 2023).

Chains of the proteins cited; added tags and fusions are not shown.
UniProt P0AGE0: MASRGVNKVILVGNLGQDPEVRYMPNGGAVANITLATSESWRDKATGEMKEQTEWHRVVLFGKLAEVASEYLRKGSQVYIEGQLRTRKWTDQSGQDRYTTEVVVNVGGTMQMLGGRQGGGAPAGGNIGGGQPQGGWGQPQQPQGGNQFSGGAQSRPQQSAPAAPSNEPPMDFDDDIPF

Substitutions are numbered along the chain they refer to. No constants are given. Whether binding was seen depends on the method and setting. Some binding calls cover weakened binding; strength is not graded here.

Assay in all cases: two-hybrid; Gal4 DNA-binding domain (pGBD) and activation domain (pGAD) fusions in S. cerevisiae pJ69-4a; growth on SD His- and Ade-deficient plates, 30°C, 4-5 days
In experiment [1] the target is T1, RecG R484E Gal4 hybrid (E. coli) (UniProt P24230).
T1 sequence: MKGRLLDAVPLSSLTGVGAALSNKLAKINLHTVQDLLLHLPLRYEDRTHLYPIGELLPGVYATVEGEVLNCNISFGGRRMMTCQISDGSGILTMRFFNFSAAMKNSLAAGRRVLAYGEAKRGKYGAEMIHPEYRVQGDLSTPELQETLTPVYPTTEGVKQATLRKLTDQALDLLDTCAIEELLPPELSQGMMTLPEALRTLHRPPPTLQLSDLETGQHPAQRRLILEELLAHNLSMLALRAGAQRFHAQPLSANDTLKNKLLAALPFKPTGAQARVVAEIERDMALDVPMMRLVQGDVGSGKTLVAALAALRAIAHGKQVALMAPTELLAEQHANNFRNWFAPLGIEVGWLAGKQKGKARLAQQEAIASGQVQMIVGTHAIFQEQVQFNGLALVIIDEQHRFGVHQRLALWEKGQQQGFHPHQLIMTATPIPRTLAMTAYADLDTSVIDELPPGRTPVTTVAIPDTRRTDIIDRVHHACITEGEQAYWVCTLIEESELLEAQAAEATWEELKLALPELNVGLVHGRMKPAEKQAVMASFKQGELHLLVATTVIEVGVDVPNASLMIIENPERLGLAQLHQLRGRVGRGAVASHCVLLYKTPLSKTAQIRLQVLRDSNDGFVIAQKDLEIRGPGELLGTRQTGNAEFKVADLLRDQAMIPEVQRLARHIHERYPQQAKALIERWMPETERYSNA

Experiment [2] has as its target T2, RecG R474E Gal4 hybrid (E. coli) (UniProt P24230).
T2 sequence: T1 sequence with R474E, E484R

Experiment [3] has as its target T3, RecG F97D Gal4 hybrid (E. coli) (UniProt P24230).
T3 sequence: T1 sequence with F97D, E484R

As to “SSB Gal4 hybrid (from UniProt P0AGE0 1-178)”, the binding result in experiment [1] is “binds”; in experiment [2], “no binding”; in experiment [3], “binds”.
